In general, Kd refers to a measure of binding affinity in units of concentration. The term koff denotes a measure of how fast the partners let go of each other. The term kon denotes a measure of how fast the partners come together. In general, EC50 (read off the curve) refers to the concentration that produces a half-maximal response.

Seven molecules from patent US20230086530A1 (SHANGHAI ESCUGEN BIOTECHNOLOGY, published 2023) can be followed below.

In test [1] the target is T1, Human CD47 recombinant protein (Human CD47 His Tag), ACRO Biosystems Cat. No. CD7-H5227 (human, UniProt Q08722 part only).
T1 construct: bought protein; also called huCD47-His; huCD47; not shown: His tag
In words: SPR Biacore T200, method as in Example 14, huCD47 (His tag) in flow. How it is done:
(§1) The binding time of the huCD47 to the antibody was 180 s, the dissociation time was 900 s, and the reaction temperature was 25° C. The binding constant ka, the dissociation constant kd and the affinity KD were calculated by FitGlobal using BIAcore 8K Evaluation software (GE Healthcare) according to the 1:1 binding model.
In general terms: SPR reads the build-up and loss of mass on a sensor chip optically.

The target in test [2] is T2, human CD47 on the cell membrane surface of CD47 positive tumor cells (Raji, NUGC-4, Jurkat) (human, UniProt Q08722).
T2 construct: whole, on cells; also called huCD47 on the cell membrane surface; cell surface CD47
In words: flow cytometry, Jurkat cells.

The target of test [3] is T1, Human CD47 recombinant protein (Human …). Briefly: SPR BIAcore 8K, antibody captured by anti-human IgG Fc on CM5, huCD47 (His tag) in flow, 25 C, 1:1 model. How it is done:
as §1

Test [4] deals with T3, huCD47-mFc (AcroBiosystems Cat. No. CD7-H52A5) (human, UniProt Q08722 part only).
T3 construct: bought protein; also called human CD47 recombinant protein; huCD47 recombinant protein; not shown: mouse Fc (mFc)
Briefly: ELISA, coated huCD47-mFc. Background: ELISA stands for enzyme-linked immunosorbent assay.

The target of test [5] is T4, biotinylated-CD47 (ACRO Biosystems Cat. No. CD7-H82E9) (UniProt Q08722 part only, biotinylated (site not stated)).
T4 construct: also called CD47 recombinant protein
Briefly: competition ELISA; blocked: biotinylated-CD47 binding to coated SIRPα-His. As for the experimental part:
After rinsing 4 times with PBST, 200 μl of PBS+1% BSA was added to each well, blocking for 1 h at room temperature, and rinsing 4 times with PBST. […] The 96-well plate was rinsed 4 times with PBST, 100 μl of Steptavidin-HRP (Invitrogen #434323) diluted 1:2500 was added to each well, and incubated at room temperature for 1 h. After rinsing the 96-well plate four times with PBST, 100 μl of TMB substrate (Cell Signaling, Cat. No. 7004) was added to each well, and after color development at room temperature for 10 mins, 50 μl of stop solution was added to stop the reaction.

B1: DX-36699-IgG4 (Fc fusion)
heavy: DVQLQASGGGSVEAGGSLTLSCLASGFYNMRWYRQAPGNERELVARIGIGGSTDYADSVKGRFTISRGNAKNMVHLQMNSLKPEDTAVYYCWGGGYWGQGTQVTVSS[human IgG4 Fc with S228P (EU numbers) cut from this listing]
notes: 39 (human IgG4 hinge to CH3, S228P)
Turning to B1, in test [1], the Kd stood at 3.59 nM, the koff is 0.00047 s⁻¹ and the kon turned out to be 131000 M⁻¹ s⁻¹. The “EC50 (read off the curve)” value in test [2] is roughly 0.1 nM.

B2: DX-36698-IgG1 (DX-36698 VHH-Fc fusion antibody) (Fc fusion)
heavy: QVQLVESGGGLVQAGGSLRLSCAASVRTFSIYAMGWFRQAPGKDREFVGAISGRGYTTYYVDSVKGRFTISRDNAKNTVYLQMNSLKPEDTAVYYCAADLYGSRRYADRESYDYWGQGTQVTVSS[human IgG1 Fc cut from this listing]
notes: bivalent VHH-Fc, human IgG1 hinge to CH3
In the case of B2, in test [3], the Kd turned out to be 5.01 nM, the koff came out at 0.000632 s⁻¹ and the on-rate (kon) was 126000 M⁻¹ s⁻¹. The “EC50 (read off the curve)” value in test [4] is roughly 3 ng/mL.

B3: DX-36699-H21 humanized VHH-Fc fusion bivalent recombinant antibody (IgG4 subtype) (Fc fusion)
heavy: EVQLLESGGGLVQPGGSLRLSCAASGFYNMRWYRQAPGNGLELVARIGIGGSTDYADSVKGRFTISRDNSKNTVYLQMNSLKPEDTAVYYCWGGGYWGQGTLVTVSS[human IgG4 Fc with S228P (EU numbers) cut from this listing]
notes: human IgG4 hinge to CH3, S228P
Regarding B3, the “EC50 (read off the curve)” value in test [2] is roughly 0.2 nM.

B4: DX-36699-H7 humanized VHH-Fc fusion bivalent recombinant antibody (IgG4 subtype) (Fc fusion)
heavy: EVQLLESGGGLVQPGGSLRLSCAASGFYNMRWYRQAPGNGLELVARIGIGGSTDYADSVKGRFTISRDNSKNTVYLQMNSLRAEDTAVYYCWGGGYWGQGTLVTVSS[human IgG4 Fc with S228P (EU numbers) cut from this listing]
notes: as for B3
Turning to B4, in test [2], the “EC50 (read off the curve)” value is roughly 0.6 nM.

B5: DX-36699-H19 humanized VHH-Fc fusion bivalent recombinant antibody (IgG4 subtype) (Fc fusion)
heavy: EVQLLESGGGVVQPGGSLRLSCAASGFYNMRWYRQAPGKGLELVARIGIGGSTDYADSVKGRFTISRDNSKNTVYLQMNSLKPEDTAVYYCWGGGYWGQGTLVTVSS[human IgG4 Fc with S228P (EU numbers) cut from this listing]
notes: as for B3
With B5, the “EC50 (read off the curve)” value in test [2] is roughly 0.4 nM.

B6: DX-36699-H20 humanized VHH-Fc fusion bivalent recombinant antibody (IgG4 subtype) (Fc fusion)
heavy: EVQLVESGGGLVQPGGSLRLSCAASGFYNMRWYRQAPGKGLELVARIGIGGSTDYADSVKGRFTISRDNSKNTVYLQMNSLKPEDTAVYYCWGGGYWGQGTLVTVSS[human IgG4 Fc with S228P (EU numbers) cut from this listing]
notes: as for B3
Turning to B6, in test [1], the Kd came out at 5.71 nM, the koff came out at 0.000855 s⁻¹ and the kon is 150000 M⁻¹ s⁻¹. Besides, in test [2], the “EC50 (read off the curve)” value is roughly 0.2 nM.

B7: DX-36699-IgG1 (DX-36699 VHH-Fc fusion antibody) (Fc fusion)
heavy: DVQLQASGGGSVEAGGSLTLSCLASGFYNMRWYRQAPGNERELVARIGIGGSTDYADSVKGRFTISRGNAKNMVHLQMNSLKPEDTAVYYCWGGGYWGQGTQVTVSS[human IgG1 Fc cut from this listing]
notes: as for B2
On to B7, for which, in test [3], the dissociation constant Kd is 0.454 nM, the koff was 5.67e-05 s⁻¹ and the kon is 125000 M⁻¹ s⁻¹. In test [4], the “EC50 (read off the curve)” value was roughly 3 ng/mL. Besides, the “IC50 (read off the curve)” value in test [5] is roughly 400 ng/mL.
